In US9234216B2, “Variant CBH I polypeptides” (BP Corporation North America Inc., priority 2011, dated 2016):
Positions count from the first letter of the chain named. In names and notes the source's numbering stands.

B1: SEQ ID 105, 106: BD29555 CBH I entry site variant: Y31Q, T32Q, S72Y, T77D, F120-VTGSNVG-S128 → F120-VTQSAQKNVG-A131 (protein)
chain: MSALNSFNMYKSALILGSLLATAGAQQIGTQQAETHPSLSWSTCKSGGSCTTNSGAITLDANWRWVHGVNTYTNCYDGNTWNTAICDTDASCAQDCALDGADYSGTYGITTSGNSLRLNFVTQSAQKNVGARTYLMADNTHYQIFDLLNQEFTFTVDVSHLPCGLNGALYFVTMDADGGVSKYPNNKAGAQYGVGYCDSQCPRDLKFIAGQANVEGWTPSSNNANTGLGNHGACCAELDIWEANSISEALTPHPCDTPGLSVCTTDACGGTYSSDRYAGTCDPDGCDFNPYRLGVTDFYGSGKTVDTTKPITVVTQFVTDDGTSTGTLSEIRRYYVQNGVVIPQPSSKISGVSGNVINSDFCDAEISTFGETASFSKHGGLAKMGAGMEAGMVLVMSLWDDYSVNMLWLDSTYPTNATGTPGAARGSCPTTSGDPKTVESQSGSSYVTFSDIRVGPFNSTFSGGSSTGGSSTTTASGTTTTKASSTSTSSTSTGTGVAAHWGQCGGQGWTGPTTCASGTTCTVVNPYYSQCL
B2: SEQ ID 107, 108: BD29555 CBH I entry site variant: Y31A, T32Y, S72Y, T73Y, T77D (protein)
chain: MSALNSFNMYKSALILGSLLATAGAQQIGTAYAETHPSLSWSTCKSGGSCTTNSGAITLDANWRWVHGVNTYYNCYDGNTWNTAICDTDASCAQDCALDGADYSGTYGITTSGNSLRLNFVTGSNVGSRTYLMADNTHYQIFDLLNQEFTFTVDVSHLPCGLNGALYFVTMDADGGVSKYPNNKAGAQYGVGYCDSQCPRDLKFIAGQANVEGWTPSSNNANTGLGNHGACCAELDIWEANSISEALTPHPCDTPGLSVCTTDACGGTYSSDRYAGTCDPDGCDFNPYRLGVTDFYGSGKTVDTTKPITVVTQFVTDDGTSTGTLSEIRRYYVQNGVVIPQPSSKISGVSGNVINSDFCDAEISTFGETASFSKHGGLAKMGAGMEAGMVLVMSLWDDYSVNMLWLDSTYPTNATGTPGAARGSCPTTSGDPKTVESQSGSSYVTFSDIRVGPFNSTFSGGSSTGGSSTTTASGTTTTKASSTSTSSTSTGTGVAAHWGQCGGQGWTGPTTCASGTTCTVVNPYYSQCL
B3: SEQ ID 109, 110: BD29555 CBH I entry site variant: Y31Q, T32Q, S72Y, T73Y, T77D (protein)
chain: B2 chain with A31Q, Y32Q
B4: SEQ ID 111, 112: BD29555 CBH I entry site variant: T32W, T73W, T77D (protein)
chain: B2 chain with A31Y, Y32W, Y72S, Y73W
B5: SEQ ID 113, 114: BD29555 CBH I entry site variant: Y31A, T32Q, T73Y, T77D (protein)
chain: B2 chain with Y32Q, Y72S
B6: SEQ ID 115, 116: BD29555 CBH I entry site variant: S72W, T73Q, F120-VTGSNVG-S128 → F120-VQQGPYSKNVG-S132 (protein)
chain: MSALNSFNMYKSALILGSLLATAGAQQIGTYTAETHPSLSWSTCKSGGSCTTNSGAITLDANWRWVHGVNTWQNCYTGNTWNTAICDTDASCAQDCALDGADYSGTYGITTSGNSLRLNFVQQGPYSKNVGSRTYLMADNTHYQIFDLLNQEFTFTVDVSHLPCGLNGALYFVTMDADGGVSKYPNNKAGAQYGVGYCDSQCPRDLKFIAGQANVEGWTPSSNNANTGLGNHGACCAELDIWEANSISEALTPHPCDTPGLSVCTTDACGGTYSSDRYAGTCDPDGCDFNPYRLGVTDFYGSGKTVDTTKPITVVTQFVTDDGTSTGTLSEIRRYYVQNGVVIPQPSSKISGVSGNVINSDFCDAEISTFGETASFSKHGGLAKMGAGMEAGMVLVMSLWDDYSVNMLWLDSTYPTNATGTPGAARGSCPTTSGDPKTVESQSGSSYVTFSDIRVGPFNSTFSGGSSTGGSSTTTASGTTTTKASSTSTSSTSTGTGVAAHWGQCGGQGWTGPTTCASGTTCTVVNPYYSQCL
B7: SEQ ID 117, 118: BD29555 CBH I entry site variant: Y31L, T32Y, T77D, F120-VTGSNVG-S128 → F120-VQQGPYSKNVG-S132 (protein)
chain: B6 chain with Y31L, T32Y, W72S, Q73T, T77D
B8: SEQ ID 119, 120: Loop GeneReassembly entry of Table 6; printed amino acid sequence equals wild type BD29555 (protein)
chain: B2 chain with A31Y, Y32T, Y72S, Y73T, D77T
B9: SEQ ID 95, 96: BD29555 CBH I entry site variant: Y31L, T32Q, S72A, T73Q, T77D, F120-VTGSNVG-S128 → F120-VQQGPYSKNVG-S132 (protein)
chain: B6 chain with Y31L, T32Q, W72A, T77D
modifications: loop F120-S128 replaced by VQQGPYSKNVG
notes: BD29555 CBH I entry site variant: Y31L, T32Q, S72A, T73Q, T77D, F120-VTGSNVG-S128 → F120-…-S132
B10: SEQ ID 97, 98: BD29555 CBH I entry site variant: Y31L, S72W, T77D, F120-VTGSNVG-S128 → F120-VQQGPYSKNVG-S132 (protein)
chain: B6 chain with Y31L, Q73T, T77D
modifications: loop F120-S128 replaced by VQQGPYSKNVG
notes: BD29555 CBH I entry site variant: Y31L, S72W, T77D, F120-VTGSNVG-S128 → F120-…-S132
B11: SEQ ID 99, 100: BD29555 CBH I entry site variant: S72Y, T73Q, F120-VTGSNVG-S128 → F120-VQQGPYSKNVG-S132 (protein)
chain: B6 chain with W72Y
modifications: loop F120-S128 replaced by VQQGPYSKNVG
notes: BD29555 CBH I entry site variant: S72Y, T73Q, F120-VTGSNVG-S128 → F120-…-S132
B12: SEQ ID 121, 122: BD29555 CBH I variant: P159G, S217K, N222H, L225Y, K345D, N352V, V451W (protein)
chain: MSALNSFNMYKSALILGSLLATAGAQQIGTYTAETHPSLSWSTCKSGGSCTTNSGAITLDANWRWVHGVNTSTNCYTGNTWNTAICDTDASCAQDCALDGADYSGTYGITTSGNSLRLNFVTGSNVGSRTYLMADNTHYQIFDLLNQEFTFTVDVSHLGCGLNGALYFVTMDADGGVSKYPNNKAGAQYGVGYCDSQCPRDLKFIAGQANVEGWTPKSNNAHTGYGNHGACCAELDIWEANSISEALTPHPCDTPGLSVCTTDACGGTYSSDRYAGTCDPDGCDFNPYRLGVTDFYGSGKTVDTTKPITVVTQFVTDDGTSTGTLSEIRRYYVQNGVVIPQPSSDISGVSGVVINSDFCDAEISTFGETASFSKHGGLAKMGAGMEAGMVLVMSLWDDYSVNMLWLDSTYPTNATGTPGAARGSCPTTSGDPKTVESQSGSSYVTFSDIRWGPFNSTFSGGSSTGGSSTTTASGTTTTKASSTSTSSTSTGTGVAAHWGQCGGQGWTGPTTCASGTTCTVVNPYYSQCL
B13: SEQ ID 123, 124: BD29555 CBH I variant: N222H, L225Y, K345D, N352V, E386S, V451W (protein)
chain: B12 chain with G159P, K217S, E386S
B14: SEQ ID 125, 126: BD29555 CBH I variant: S326L, K345D, N352V (protein)
chain: B12 chain with G159P, K217S, H222N, Y225L, S326L, W451V
B15: SEQ ID 127, 128: BD29555 CBH I variant: L225Y, D318Q, T324R, S326L, K345D, E386S (protein)
chain: B12 chain with G159P, K217S, H222N, D318Q, T324R, S326L, V352N, E386S, W451V
B16: SEQ ID 129, 130: BD29555 CBH I variant: P159G, S217K, N222H, L225Y, Q334S, K345D, E386S (protein)
chain: B12 chain with Q334S, V352N, E386S, W451V
B17: SEQ ID 131, 132: BD29555 CBH I variant: E386S, V451W (protein)
chain: B2 chain with A31Y, Y32T, Y72S, Y73T, D77T, E386S, V451W

Experiment: Saccharification of pretreated bagasse by CBHI variants in a cocktail with CBHII and EG
Format: biochemical
Settings: Table 6; 5% w/v pretreated bagasse, 35° C., pH5.2, CBHI 4 mg/g cellulose

Q: With B1 as the molecule, how does the “% improvement over WT @ 48 hr” value read?
A: 11.8%

Q: For B2, which “% improvement over WT @ 48 hr” value is on record?
A: 23.2%

Q: With B3 as the molecule, how does the “% improvement over WT @ 48 hr” value read?
A: 11.9%

Q: Which “% improvement over WT @ 48 hr” value does the source give for B4 here?
A: 9.5%

Q: Which “% improvement over WT @ 48 hr” value does the source give for B5 here?
A: 22.2%

Q: With B6 as the molecule, how does the “% improvement over WT @ 48 hr” value read?
A: 18.3%

Q: Which “% improvement over WT @ 48 hr” value does the source give for B7 here?
A: 7.9%

Q: Which “% improvement over WT @ 48 hr” value does the source give for B8 here?
A: 18.1%

Q: With B9 as the molecule, how does the “% improvement over WT @ 48 hr” value read?
A: 10.3%

Q: Which “% improvement over WT @ 48 hr” value does the source give for B10 here?
A: 8.5%

Q: Which “% improvement over WT @ 48 hr” value does the source give for B11 here?
A: 6.7%

Same assay, conditions: Table 6; Point Mutant Recombinants, time point 72 hours

Q: For B12, which “% improvement over WT @ 72 hr” value is on record?
A: 5.4%

Q: With B13 as the molecule, how does the “% improvement over WT @ 72 hr” value read?
A: 19.6%

Q: With B14 as the molecule, how does the “% improvement over WT @ 72 hr” value read?
A: 18.6%

Q: With B15 as the molecule, how does the “% improvement over WT @ 72 hr” value read?
A: 19.2%

Q: Which “% improvement over WT @ 72 hr” value does the source give for B16 here?
A: 17.2%

Q: With B17 as the molecule, how does the “% improvement over WT @ 72 hr” value read?
A: 12.2%

Same assay, conditions: Table 6; method not described

Q: For B1, which “Dose Reduction” value is on record?
A: 0.5X

Q: Which “Dose Reduction” value does the source give for B2 here?
A: 0.75X

Q: Which “Dose Reduction” value does the source give for B5 here?
A: 0.8X

Q: For B6, which “Dose Reduction” value is on record?
A: 0.75X

Q: With B13 as the molecule, how does the “Dose Reduction” value read?
A: 0.75X

Q: With B14 as the molecule, how does the “Dose Reduction” value read?
A: 0.6X

Q: With B15 as the molecule, how does the “Dose Reduction” value read?
A: 1X

Q: Which “Dose Reduction” value does the source give for B16 here?
A: 0.65X

Q: With B17 as the molecule, how does the “Dose Reduction” value read?
A: 0.75X

Q: With B11 as the molecule, how does the “Dose Reduction” value read?
A: 0.5X
